The values that follow come from the RNAGym collection of RNA variant scans (doi:10.7554/elife.90254).

The source gives no read counts; variants with many changes may rest on few reads.

B1: LINE1-mini (parent)
chain: GGCAGAGCUCAACACAGCGUGGCAAAGUGGCUGUGGCUAGACUGCC

The variants in this series derive from B1. The series can be described thus: self-cleavage, relative activity (ratio to wild type); higher = more cleavage; in vitro, sequencing; the parent is a self-cleaving ribozyme.
Regarding G7C A14G G27U G36U G44C, the self-cleavage was determined as 0.02.

Turning to G7A C10G G22C, the self-cleavage amounted to 0.02.

For the variant G7A A24G A26U G27A G40C, the self-cleavage was 0.14.

Regarding G7A A14G A24C A41G, the self-cleavage came to 0.26.

G7C C13A C15A C18G G21A C45U C46A: the self-cleavage was 0.02.

For G7A C15A U28C, the self-cleavage amounted to 0.13.

For the variant G7A C10A U34A, the self-cleavage amounted to 0.01.

Turning to A6U G44C C45G, the self-cleavage came to 0.24.

G7C C13G C15G G36C: the self-cleavage stood at 0.11.

As for A6U G30U U34A, the self-cleavage worked out at 0.04.

As to G7A U20G A24G G44A, the self-cleavage is 0.05.

Consider G7A G27U G29U, for which the self-cleavage worked out at 0.16.

For G7A U9C A11C A24C G33A, the self-cleavage turned out to be 0.02.

As to G7C C18A G21U, the self-cleavage is 0.08.

Take G7C G17C U20A U28G C42U: the self-cleavage came to 0.01.

In the case of G7C C10G G33C, the self-cleavage worked out at 0.02.

On to G7A U9C G29A G30C C42U, for which the self-cleavage was determined as 0.02.

Turning to G7A U9G G33A C45A, the self-cleavage was 0.02.

As to G7C C8G G35A G40U A41U, the self-cleavage was 0.19.

In the case of G7C A26G U28A G33U, the self-cleavage was 0.05.

On to G7C C15A A16U G29C C46A, for which the self-cleavage stood at 0.03.

Consider G7A C23A C45U, for which the self-cleavage stood at 0.13.

Turning to A6U G29U U34A, the self-cleavage came to 0.33.

On to G7C A16U C31U, for which the self-cleavage was determined as 0.04.

With G7C A16U G29U C31A C37G, the self-cleavage was determined as 0.

Turning to G7C C8A G21A, the self-cleavage was 0.3.

Consider A6U G36C A39G, for which the self-cleavage was 0.06.

Consider G7C C10U G21U G33U C42G G44A, for which the self-cleavage came out at 0.01.

Take G7C A25C G30C U38G: the self-cleavage came out at 0.

As for G7A A16U A25G, the self-cleavage came out at 0.23.

Regarding G7A U20C C23A A25G G30A, the self-cleavage is 0.01.

Turning to G7A C13A C15U G17C G19A G35C, the self-cleavage was determined as 0.19.

Consider G7C C8G A12U A25C A26U A41G G44A, for which the self-cleavage worked out at 0.05.

Turning to G7C C8U A11C G17A G44C, the self-cleavage was found to be 0.03.

G7A C23A G30A G33A U43A: the self-cleavage worked out at 0.18.

As for G7C A14C C18A G27U, the self-cleavage came out at 0.08.

Turning to G7C C23A U28G C31U, the self-cleavage worked out at 0.01.

Turning to G7C A11G A12G C13G A24G G36U, the self-cleavage is 0.01.

With G7A U28G U38C A41G, the self-cleavage is 0.02.

Turning to G7A G21C G44U C45G, the self-cleavage stood at 0.04.

Regarding G7C A16G G19A G33A, the self-cleavage turned out to be 0.01.

For the variant G7C C10A U20C G27A, the self-cleavage was determined as 0.05.

As for G7A G19U G40A C46U, the self-cleavage was found to be 0.14.

For the variant G7A C10A A16C, the self-cleavage came out at 0.01.

Take G7C C13U U20C: the self-cleavage stood at 0.04.

Take G7A C8U G19C: the self-cleavage was found to be 0.11.

As to G7C C13G U43A, the self-cleavage was found to be 0.01.

With G7A U9G A25U G33U G35U C46A, the self-cleavage amounted to 0.01.

With G7C C15G A16U C23A, the self-cleavage was determined as 0.02.

As to G7C A26G C42A, the self-cleavage was 0.17.

On to G7A G19U A39U, for which the self-cleavage worked out at 0.03.

Turning to G7C G17C C31A, the self-cleavage turned out to be 0.12.

As for A6U U20A G21C C23U, the self-cleavage turned out to be 0.49.

On to G7A U9C U43A, for which the self-cleavage worked out at 0.15.

Regarding G7A C8A A14U C15U C23G U34A G36U, the self-cleavage was determined as 0.08.

For the variant G7A C8A G22U G35U A39G G40A, the self-cleavage amounted to 0.02.

With G7A C13A G17C, the self-cleavage is 0.38.

Turning to G7C C8A U9C, the self-cleavage amounted to 0.19.

As for A6U U9G C10U A41G, the self-cleavage was found to be 0.01.

For the variant G7A C18G G22C U28C U34C, the self-cleavage came to 0.03.

G7A G22A A24G G44U: the self-cleavage is 0.1.

For G7A G27C C42A, the self-cleavage was determined as 0.04.

On to G7C C18G G33C U38A, for which the self-cleavage is 0.01.

Take G7C A11U G22U C23A A24U G27U: the self-cleavage turned out to be 0.03.

Consider G7C C13A U20C G27C G36U, for which the self-cleavage was determined as 0.02.

Turning to G7A G21C A25C U34A, the self-cleavage is 0.01.

With G7A U20A C23A C37G U38A, the self-cleavage stood at 0.01.

Regarding A6U G33U U38A A39U, the self-cleavage stood at 0.18.

For the variant G7A G19A U20A G27A G33U, the self-cleavage worked out at 0.05.

For G7A C8A G21U A39U, the self-cleavage came out at 0.02.

Take G7A U9C G17C A26G G33A: the self-cleavage came out at 0.01.

In the case of G7A G36U G44C, the self-cleavage was 0.1.

Regarding G7A G22U G36C, the self-cleavage was determined as 0.09.

G7A C8U U9G G22U U32A: the self-cleavage worked out at 0.06.

Consider G7A G21C G33C G35A G40U C42U, for which the self-cleavage came to 0.14.

As for G7C A14U G17A U43A C45G, the self-cleavage was found to be 0.04.

With G7C A11C C31A, the self-cleavage came out at 0.

For the variant G7C A14U G35C C45U, the self-cleavage was determined as 0.1.

In the case of G7A C10U G17U A25U U34A, the self-cleavage worked out at 0.03.

Regarding G7C G19U C37U, the self-cleavage came out at 0.03.

As to A6U G33U U43G, the self-cleavage was determined as 0.25.

With G7A A11G G29C G40A, the self-cleavage was 0.01.

Regarding G7A U20G G21U G40C C46A, the self-cleavage turned out to be 0.33.

For G7C C8A C15A G19A, the self-cleavage worked out at 0.29.

Turning to G7A C23A A24G, the self-cleavage is 0.79.

Consider G7A C23G U38A U43A, for which the self-cleavage was 0.

As to G7C G21A G29U C31A U32A G40C, the self-cleavage turned out to be 0.04.

With G7A A14U A16C G19C C23G C42G, the self-cleavage stood at 0.06.

Consider G7C A24U A25G C31U A41C C46A, for which the self-cleavage was determined as 0.01.

On to G7C A11U C46G, for which the self-cleavage was 0.01.

Consider G7C C8G G17C C46G, for which the self-cleavage is 0.05.

For the variant G7A C10A G17U C18U, the self-cleavage worked out at 0.01.

For the variant G7A C18G A25C C37U, the self-cleavage is 0.04.

For A6U G30C U38G C46U, the self-cleavage worked out at 0.02.

Consider G7A A12C G17A C18A, for which the self-cleavage came to 0.01.

In the case of G7C G17U G19U G30U U38C G40A, the self-cleavage came to 0.02.

For the variant A6U U32G C37U, the self-cleavage is 0.03.

For the variant G7A G29C G36C U38A, the self-cleavage turned out to be 0.11.

As to G7C C8A C18A, the self-cleavage amounted to 0.15.

For G7A C10G C23U G33C, the self-cleavage was 0.04.

For the variant G7A C23A C31G, the self-cleavage was determined as 0.15.

For the variant G7A A25G U32C G33A G35C, the self-cleavage stood at 0.03.

As for G7A U9C A11U, the self-cleavage was found to be 0.57.

Turning to G7C A16U G27A G40C, the self-cleavage came out at 0.06.

With G7C A11U G35U, the self-cleavage is 0.03.

Regarding G7C G17A C23U C31U, the self-cleavage was 0.05.

Consider G7C A25C C42A, for which the self-cleavage amounted to 0.03.

Regarding G7A C18A U43C, the self-cleavage was 0.13.

Take G7C A14U U43C: the self-cleavage turned out to be 0.2.

With A6U U20A A25G A39C, the self-cleavage was 0.08.

Consider A6U G29C G35C C45U, for which the self-cleavage amounted to 0.08.

Turning to G7A C23A A26U C37A, the self-cleavage is 0.12.

On to G7A A11C A16G G21U, for which the self-cleavage stood at 0.02.

For G7A U9G G27A U34A, the self-cleavage is 0.09.

Consider A6U U9A A12G A14U C18U C42A U43C, for which the self-cleavage turned out to be 0.29.

With G7A G21A A26G C37G G44C, the self-cleavage was 0.05.

Turning to G7C G19C U20C G27U G36U, the self-cleavage was found to be 0.02.

Regarding G7A A12C G33U, the self-cleavage was determined as 0.01.

On to G7A A26G U43C C45G, for which the self-cleavage was found to be 0.1.

As to G7C A14G G17A, the self-cleavage is 0.06.

On to G7C C15U G21A C31G, for which the self-cleavage was 0.1.

Consider G7A C31U U34G G35A G36U C45G, for which the self-cleavage was 0.06.

For G7A C18G U38A, the self-cleavage is 0.02.

As for G7A C10A G44A, the self-cleavage is 0.02.

On to G7A G35U C46G, for which the self-cleavage turned out to be 0.06.

Take G7A C10U A41C C45G: the self-cleavage stood at 0.02.

Regarding G7A A16G C31G, the self-cleavage worked out at 0.01.

With G7C C18G G21C U34G G36A A39G, the self-cleavage is 0.12.

Take G7A C8G C15A U28C U38A C45G: the self-cleavage is 0.03.

G7A A12G G17C G22A: the self-cleavage worked out at 0.01.

Turning to G7A C15G G44U, the self-cleavage is 0.01.

With G7A C13G G22A G36A, the self-cleavage came to 0.22.

With A6U U20G A26C, the self-cleavage worked out at 0.46.

For the variant G7A C13G C18A C46G, the self-cleavage is 0.17.

Take G7C A14G G33C C46A: the self-cleavage turned out to be 0.1.

In the case of G7A A11U A14U U34G U38A A39G, the self-cleavage worked out at 0.

Regarding G7C C15G C46U, the self-cleavage turned out to be 0.12.

Consider G7C A11C C23G C31U, for which the self-cleavage stood at 0.02.

In the case of G7A A39G C42U, the self-cleavage was determined as 0.14.

For the variant G7A G22A C46U, the self-cleavage amounted to 0.07.

For G7C C13G A16C, the self-cleavage is 0.06.

For the variant A6U G35A C42G G44C, the self-cleavage came out at 0.07.

Consider G7A G22C G33U U38A, for which the self-cleavage was determined as 0.11.

Turning to G7A G21A G22A G33C, the self-cleavage turned out to be 0.18.

Take G7C A26C G30U G35C: the self-cleavage stood at 0.06.

For the variant G7A C15G A41C C45G C46A, the self-cleavage stood at 0.05.

For G7A C23A G44U, the self-cleavage is 0.28.

As for G7C A16C U32C, the self-cleavage came out at 0.17.

For A6U G30C C45G, the self-cleavage was 0.03.

Regarding A6U G29U A39G, the self-cleavage came out at 0.19.

With G7A U9G G21C G22A A24U U34C G36U, the self-cleavage was 0.03.

With G7A A16U G21A G33A, the self-cleavage worked out at 0.18.

Consider G7A C13A C18U A24G G35U G36A A41U, for which the self-cleavage was determined as 0.07.

As for G7C C15U G21U, the self-cleavage was 0.08.

Turning to G7C C8G A26U G36U, the self-cleavage stood at 0.2.

For the variant G7C C10A C18A G19A G35U C37A, the self-cleavage came out at 0.04.

With G7A C8G U34G G44A, the self-cleavage came to 0.07.

As to G7A U34C G35C A41C C45A, the self-cleavage came out at 0.02.

On to G7A C23G U38G C46G, for which the self-cleavage was determined as 0.01.

On to A6U G29A U34A G36U, for which the self-cleavage turned out to be 0.07.

Turning to G7A C8U C42A C46A, the self-cleavage was 0.06.

As to G7A U9G C10G G17C U20A G30A G36A, the self-cleavage was 0.02.

With G7A C15U C23U, the self-cleavage turned out to be 0.23.

For the variant G7A U9A C23G, the self-cleavage is 0.09.

With G7A A11G G19A C37A, the self-cleavage was 0.03.

G7C C13U U28A C45A: the self-cleavage worked out at 0.06.

Consider A6U U9A C31G, for which the self-cleavage was found to be 0.03.
